# Measurements as given in the supplement of paper PMC8728848.
# The list shows a part of the results.
# What was measured:
# Test in all cases: glycan array binding signal (z-score within array); higher = stronger binding
# Details in all cases: glycan notation: IUPAC condensed, linker removed
# [1] = biological target: Fuc(a1-2)Gal(b1-4)[Fuc(a1-3)]GlcNAc(b1-3)GalNAc
# Method in brief: (§1)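 Glycan array data came from 3228 arrays in the Consortium for Functional Glycomics database, and only arrays with an available protein sequence were kept. Glycan names were put into IUPAC-condensed notation, and columns mapping to the same glycan were averaged. The binding signal is a within-array Z-score, averaged across arrays of one protein sequence run at different concentrations or buffers and across linkers. A negative Z-score can be read as non-binding.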
# [2] = biological target: Fuc(a1-2)Gal(b1-4)[Fuc(a1-3)]GlcNAc(b1-3)[Neu5Ac(a2-6)Gal(b1-4)GlcNAc(b1-6)]Gal(b1-4)Glc
# Method in brief: as §1
# [3] = biological target: Fuc(a1-2)Gal3S(b1-4)GlcNAc
# Method in brief: as §1
# [4] = biological target: Fuc(a1-2)Gal6S(b1-3)GlcNAc
# Method in brief: as §1
# [5] = biological target: Fuc(a1-2)Gal6S(b1-3)GlcNAc6S
# Method in brief: as §1
# Fuc(a1-2)Gal6S(b1-4)Glc = biological target: Fuc(a1-2)Gal6S(b1-4)Glc
# Method in brief: as §1
# [6] = biological target: Fuc(a1-2)Gal6S(b1-4)Glc6S
# Method in brief: as §1
# [7] = biological target: Fuc(a1-2)Gal6S(b1-4)GlcNAc
# Method in brief: as §1
# Fuc(a1-2)GlcNAc = biological target: Fuc(a1-2)GlcNAc
# Method in brief: as §1
# Fuc(a1-2)[Gal(a1-3)]Gal = biological target: Fuc(a1-2)[Gal(a1-3)]Gal
# Method in brief: as §1
# [8] = biological target: Fuc(a1-2)[Gal(a1-3)]Gal(b1-3)GalNAc
# Method in brief: as §1
# [9] = biological target: Fuc(a1-2)[Gal(a1-3)]Gal(b1-3)GalNAc(b1-3)Gal(a1-4)Gal(b1-4)Glc
# Method in brief: as §1
# [10] = biological target: Fuc(a1-2)[Gal(a1-3)]Gal(b1-3)GlcNAc
# Method in brief: as §1
# [11] = biological target: Fuc(a1-2)[Gal(a1-3)]Gal(b1-3)GlcNAc(b1-2)Man(a1-3)[Fuc(a1-2)[Gal(a1-3)]Gal(b1-3)GlcNAc(b1-2)Man(a1-6)]Man(b1-4)GlcNAc(b1-4)GlcNAc
# Method in brief: as §1
# [12] = biological target: Fuc(a1-2)[Gal(a1-3)]Gal(b1-3)GlcNAc(b1-2)Man(a1-3)[Fuc(a1-2)[Gal(a1-3)]Gal(b1-3)GlcNAc(b1-2)Man(a1-6)]Man(b1-4)GlcNAc(b1-4)[Fuc(a1-6)]GlcNAc
# Method in brief: as §1
# [13] = biological target: Fuc(a1-2)[Gal(a1-3)]Gal(b1-3)GlcNAc(b1-3)GalNAc
# Method in brief: as §1
# [14] = biological target: Fuc(a1-2)[Gal(a1-3)]Gal(b1-3)GlcNAc(b1-6)GalNAc
# Method in brief: as §1
# [15] = biological target: Fuc(a1-2)[Gal(a1-3)]Gal(b1-4)Glc
# Method in brief: as §1
# [16] = biological target: Fuc(a1-2)[Gal(a1-3)]Gal(b1-4)GlcNAc
# Method in brief: as §1
# [17] = biological target: Fuc(a1-2)[Gal(a1-3)]Gal(b1-4)GlcNAc(b1-2)Man
# Method in brief: as §1
# [18] = biological target: Fuc(a1-2)[Gal(a1-3)]Gal(b1-4)GlcNAc(b1-2)Man(a1-3)[Fuc(a1-2)[Gal(a1-3)]Gal(b1-4)GlcNAc(b1-2)Man(a1-6)]Man(b1-4)GlcNAc(b1-4)GlcNAc
# Method in brief: as §1
# [19] = biological target: Fuc(a1-2)[Gal(a1-3)]Gal(b1-4)GlcNAc(b1-2)Man(a1-3)[Fuc(a1-2)[Gal(a1-3)]Gal(b1-4)GlcNAc(b1-2)Man(a1-6)]Man(b1-4)GlcNAc(b1-4)[Fuc(a1-6)]GlcNAc
# Method in brief: as §1
# [20] = biological target: Fuc(a1-2)[Gal(a1-3)]Gal(b1-4)GlcNAc(b1-3)GalNAc
# Method in brief: as §1
# [21] = biological target: Fuc(a1-2)[Gal(a1-3)]Gal(b1-4)GlcNAc(b1-6)GalNAc
# Method in brief: as §1
# [22] = biological target: Fuc(a1-2)[Gal(a1-3)]Gal(b1-4)[Fuc(a1-3)]Glc
# Method in brief: as §1
# [23] = biological target: Fuc(a1-2)[Gal(a1-3)]Gal(b1-4)[Fuc(a1-3)]GlcNAc
# Method in brief: as §1
# [24] = biological target: Fuc(a1-2)[Gal(a1-3)]Gal(b1-4)[Fuc(a1-3)]GlcNAc(b1-3)GalNAc
# Method in brief: as §1
# [25] = biological target: Fuc(a1-2)[Gal(a1-4)]Gal(b1-4)GalNAc
# Method in brief: as §1
# [26] = biological target: Fuc(a1-2)[Gal(a1-4)]Gal(b1-4)GlcNAc
# Method in brief: as §1
# [27] = biological target: Fuc(a1-2)[GalNAc(a1-3)]Gal
# Method in brief: as §1
# [28] = biological target: Fuc(a1-2)[GalNAc(a1-3)]Gal(b1-3)GalNAc(a1-3)[Fuc(a1-2)]Gal(b1-4)GlcNAc
# Method in brief: as §1
# [29] = biological target: Fuc(a1-2)[GalNAc(a1-3)]Gal(b1-3)GalNAc(b1-3)Gal(a1-4)Gal(b1-4)Glc
# Method in brief: as §1
# [30] = biological target: Fuc(a1-2)[GalNAc(a1-3)]Gal(b1-3)GlcNAc
# Method in brief: as §1
# [31] = biological target: Fuc(a1-2)[GalNAc(a1-3)]Gal(b1-3)GlcNAc(b1-2)Man(a1-3)[Fuc(a1-2)[GalNAc(a1-3)]Gal(b1-3)GlcNAc(b1-2)Man(a1-6)]Man(b1-4)GlcNAc(b1-4)GlcNAc
# Method in brief: as §1
# [32] = biological target: Fuc(a1-2)[GalNAc(a1-3)]Gal(b1-3)GlcNAc(b1-2)Man(a1-3)[Fuc(a1-2)[GalNAc(a1-3)]Gal(b1-3)GlcNAc(b1-2)Man(a1-6)]Man(b1-4)GlcNAc(b1-4)[Fuc(a1-6)]GlcNAc
# Method in brief: as §1
# [33] = biological target: Fuc(a1-2)[GalNAc(a1-3)]Gal(b1-3)GlcNAc(b1-3)GalNAc
# Method in brief: as §1
# [34] = biological target: Fuc(a1-2)[GalNAc(a1-3)]Gal(b1-3)GlcNAc(b1-6)GalNAc
# Method in brief: as §1
# [35] = biological target: Fuc(a1-2)[GalNAc(a1-3)]Gal(b1-4)Glc
# Method in brief: as §1
# [36] = biological target: Fuc(a1-2)[GalNAc(a1-3)]Gal(b1-4)GlcNAc
# Method in brief: as §1
# [37] = biological target: Fuc(a1-2)[GalNAc(a1-3)]Gal(b1-4)GlcNAc(b1-2)Man
# Method in brief: as §1
# [38] = biological target: Fuc(a1-2)[GalNAc(a1-3)]Gal(b1-4)GlcNAc(b1-2)Man(a1-3)[Fuc(a1-2)[GalNAc(a1-3)]Gal(b1-4)GlcNAc(b1-2)Man(a1-6)]Man(b1-4)GlcNAc(b1-4)GlcNAc
# Method in brief: as §1
# [39] = biological target: Fuc(a1-2)[GalNAc(a1-3)]Gal(b1-4)GlcNAc(b1-2)Man(a1-3)[Fuc(a1-2)[GalNAc(a1-3)]Gal(b1-4)GlcNAc(b1-2)Man(a1-6)]Man(b1-4)GlcNAc(b1-4)[Fuc(a1-6)]GlcNAc
# Method in brief: as §1
# [40] = biological target: Fuc(a1-2)[GalNAc(a1-3)]Gal(b1-4)GlcNAc(b1-3)Gal(b1-4)GlcNAc
# Method in brief: as §1
# [41] = biological target: Fuc(a1-2)[GalNAc(a1-3)]Gal(b1-4)GlcNAc(b1-3)Gal(b1-4)GlcNAc(b1-3)Gal(b1-4)GlcNAc
# Method in brief: as §1
# [42] = biological target: Fuc(a1-2)[GalNAc(a1-3)]Gal(b1-4)GlcNAc(b1-3)GalNAc
# Method in brief: as §1
binder,measurement,setting,value
"Gal 2 (Homo sapiens), P05162 (protein) MTGELEVKNMDMKPGSTLKITGSIADGTDGFVINLGQGTDKLNLHFNPRFSESTIVCNSLDGSNWGQEQREDHLCFSPGSEVKFTVTFESDKFKVKLPDGHELTFPNRLGHSHLSYLSVRGGFNMSSFKLKE",glycan array binding signal (z-score),[1],-0.121
same,glycan array binding signal (z-score),[2],-0.296
same,glycan array binding signal (z-score),[3],-0.17
same,glycan array binding signal (z-score),[4],0.007
same,glycan array binding signal (z-score),[5],0.066
same,glycan array binding signal (z-score),Fuc(a1-2)Gal6S(b1-4)Glc,-0.205
same,glycan array binding signal (z-score),[6],-0.193
same,glycan array binding signal (z-score),[7],-0.248
same,glycan array binding signal (z-score),Fuc(a1-2)GlcNAc,-0.39
same,glycan array binding signal (z-score),Fuc(a1-2)[Gal(a1-3)]Gal,-0.238
same,glycan array binding signal (z-score),[8],-0.267
same,glycan array binding signal (z-score),[9],-0.171
same,glycan array binding signal (z-score),[10],0.994
same,glycan array binding signal (z-score),[11],-0.193
same,glycan array binding signal (z-score),[12],-0.254
same,glycan array binding signal (z-score),[13],-0.275
same,glycan array binding signal (z-score),[14],-0.179
same,glycan array binding signal (z-score),[15],1.31
same,glycan array binding signal (z-score),[16],2.52
same,glycan array binding signal (z-score),[17],0.237
same,glycan array binding signal (z-score),[18],0.167
same,glycan array binding signal (z-score),[19],8.45
same,glycan array binding signal (z-score),[20],-0.029
same,glycan array binding signal (z-score),[21],-0.249
same,glycan array binding signal (z-score),[22],-0.139
same,glycan array binding signal (z-score),[23],-0.142
same,glycan array binding signal (z-score),[24],-0.233
same,glycan array binding signal (z-score),[25],-0.44
same,glycan array binding signal (z-score),[26],-0.264
same,glycan array binding signal (z-score),[27],-0.234
same,glycan array binding signal (z-score),[28],-0.233
same,glycan array binding signal (z-score),[29],-0.065
same,glycan array binding signal (z-score),[30],3.75
same,glycan array binding signal (z-score),[31],1.32
same,glycan array binding signal (z-score),[32],-0.192
same,glycan array binding signal (z-score),[33],-0.072
same,glycan array binding signal (z-score),[34],1.92
same,glycan array binding signal (z-score),[35],1.98
same,glycan array binding signal (z-score),[36],5.89
same,glycan array binding signal (z-score),[37],13.5
same,glycan array binding signal (z-score),[38],0.792
same,glycan array binding signal (z-score),[39],1.69
same,glycan array binding signal (z-score),[40],0.862
same,glycan array binding signal (z-score),[41],-0.161
same,glycan array binding signal (z-score),[42],0
